Out of some 310,000 compounds screened, about 2,200 (0.71%) showed an effect of 50% or more. Effects have a minus sign here. The list shows a part of the results.
Each compound was assayed against human ether-à-go-go-related gene (hERG) potassium channel (human, UniProt Q12809) (assay: primary screen, population patch clamp on CHO cells stably expressing hERG).
human ether-à-go-go-related gene (hERG) potassium channel, sequence (Q12809 whole entry, looked up): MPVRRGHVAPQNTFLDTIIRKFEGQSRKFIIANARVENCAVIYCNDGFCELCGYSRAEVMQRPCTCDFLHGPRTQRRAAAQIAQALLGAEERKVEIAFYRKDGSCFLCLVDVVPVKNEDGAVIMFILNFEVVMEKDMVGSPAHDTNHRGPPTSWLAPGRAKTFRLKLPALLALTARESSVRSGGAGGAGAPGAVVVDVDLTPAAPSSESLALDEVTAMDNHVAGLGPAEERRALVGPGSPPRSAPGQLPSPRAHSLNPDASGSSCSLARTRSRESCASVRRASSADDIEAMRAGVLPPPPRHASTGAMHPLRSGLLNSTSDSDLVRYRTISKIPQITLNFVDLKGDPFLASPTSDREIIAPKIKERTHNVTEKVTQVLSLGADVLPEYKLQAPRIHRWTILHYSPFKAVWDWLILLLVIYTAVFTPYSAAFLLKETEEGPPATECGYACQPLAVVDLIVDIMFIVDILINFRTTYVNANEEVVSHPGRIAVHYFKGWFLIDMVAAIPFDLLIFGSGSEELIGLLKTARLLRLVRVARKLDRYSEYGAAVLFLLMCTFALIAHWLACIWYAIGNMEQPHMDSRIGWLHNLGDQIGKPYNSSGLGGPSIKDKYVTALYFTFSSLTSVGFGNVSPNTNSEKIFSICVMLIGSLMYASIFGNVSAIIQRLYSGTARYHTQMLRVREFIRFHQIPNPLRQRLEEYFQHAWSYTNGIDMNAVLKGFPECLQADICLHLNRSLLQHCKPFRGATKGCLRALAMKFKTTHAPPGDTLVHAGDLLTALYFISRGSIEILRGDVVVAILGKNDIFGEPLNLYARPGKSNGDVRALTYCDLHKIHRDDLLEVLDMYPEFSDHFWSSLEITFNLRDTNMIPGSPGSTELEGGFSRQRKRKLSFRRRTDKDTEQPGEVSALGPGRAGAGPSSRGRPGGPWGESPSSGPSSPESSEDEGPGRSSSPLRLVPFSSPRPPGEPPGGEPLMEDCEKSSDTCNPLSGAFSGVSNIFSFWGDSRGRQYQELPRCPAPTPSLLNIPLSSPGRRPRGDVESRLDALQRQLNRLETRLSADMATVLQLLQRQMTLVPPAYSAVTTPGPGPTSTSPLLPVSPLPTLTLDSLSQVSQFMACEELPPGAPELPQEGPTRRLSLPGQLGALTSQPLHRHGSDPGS

Compound	hERG current change (%, negative = inhibition) at 1uM [%]
O=C(O)CCC(=O)Nc1ccc(-c2csc(Nc3cccc4ccccc34)n2)cc1	8.86
Cl.c1ccc(COc2ccccc2CNCc2cccnc2)cc1	-0.0032
CC(C)CCNC(=O)CN(C(=O)CCC(=O)Nc1ccccn1)c1ccc(F)c(Cl)c1	11.2
CS(=O)(=O)N(Cc1ccccc1)c1ccc(C(=O)NCC2CCCO2)cc1 (stereo not drawn)	12.9
CCn1c(SCC(=O)N2CCc3ccccc32)nnc1-c1c[nH]c2ccccc12	6.41
Cc1cc(N2C(=O)C3C4CCC(C4)C3C2=O)no1 (stereo not drawn)	16
COc1cc2c(cc1OC)C(c1ccc(C)cc1)NC(=O)C2 (stereo not drawn)	17.6
Cc1nn(-c2ccc(F)cc2)c(Cl)c1/C=N/NC(=O)c1cccs1	15.3
CC1(C)c2ccccc2N(CC(N)=O)C12C=Cc1ccccc1O2 (stereo not drawn)	11.7
CC(C)c1ccc2[nH]c3c(c2c1)CCC/C3=N\NC(=O)c1ccncc1	9.68
CN1CCN(C2=C(NS(=O)(=O)c3cccs3)C(=O)c3ccccc3C2=O)CC1	9.07
COc1cc([N+](=O)[O-])cc([N+](=O)[O-])c1NC(=O)N1CCOCC1	10
O=C(Cn1cc([N+](=O)[O-])cn1)N1N=C(C(F)F)CC1(O)C(F)F (stereo not drawn)	0.595
CC1(C)Cc2c(c(N3CCOCC3)nc3sc4c(NN)ncnc4c23)CS1	-6.64
c1ccc(Sc2ncccn2)nc1	13.2
CCCCn1c(N)c(N(CCC(C)C)C(=O)CCCc2nc3ccccc3s2)c(=O)[nH]c1=O	10.2
COc1cc2[nH]c(=O)n(CCCCCC(=O)N3CCN(c4ccccn4)CC3)c(=O)c2cc1OC	15
COc1cc(NC(=O)NC2Cc3ccccc3C2)cc(OC)c1	7.68
Cc1ccc(C(=O)N/C(=C\c2cccs2)C(=O)NCCc2c[nH]c3ccccc23)cc1	6.41

Compound	hERG current change (%, negative = inhibition) at 1uM [%]
COCCOC(=O)C1=C(N)OC2=C(C(=O)CCC2)C1c1cccnc1 (stereo not drawn)	2.79
COC(=O)Cn1c(N)[n+](Cc2ccccc2)c2ccccc21.[Br-]	2.27
CC(/C=C/c1ccco1)=N\NC(=O)c1cc(Cl)ccc1O	18.3
COc1ccc(-c2cc(C(F)(F)F)nc(-n3ccnc3C)n2)cc1	6.23
Nc1nc(Nc2cccc(C(F)(F)F)c2)nc(C(F)(F)F)n1	5.02
Oc1[nH]c2ccccc2c1C1=NCCCCC1	3.28
O=[N+]([O-])c1cccc(/C=N/Nc2nc(N3CCCCC3)nc(N3CCCCC3)n2)c1	4.19
CCCOc1c(Br)cc(/C=N/O)cc1OC	15.2
CCN(CC)S(=O)(=O)c1c(OC)cc(C)c(Cl)c1C	4.24
CCN1CCN(/C=N/c2nc(C)cs2)CC1	7.85
COc1ccc(-c2csc(NC(=S)NC(=O)c3cc4ccccc4o3)n2)cc1Br	13
CCOc1ccc2[nH]c(=O)c(CN(Cc3ccc(F)cc3)C(=O)N3CCCC3)cc2c1	9.7
CC(=O)c1ccc(NC(=O)Nc2ccc3c(c2)N(C)C(=O)CS3)cc1	12.4
C/C(=N\NC(=O)CSc1nc(C)cc(C)n1)c1cccs1	9.08
CCN1CCN(C(C)C(=O)NC2CCCCC2)CC1.O=C(O)C(=O)O (stereo not drawn)	8.27
O=C(CCN1C(=O)c2ccccc2C1=O)N1CCN(C(=O)c2ccccc2)CC1	7.73
COc1ccc2c(c1)C1NC(=S)NC(C)(O2)C1C(=O)Nc1ccc(C)cc1C (stereo not drawn)	3.98
O=[N+]([O-])/C(C(Cl)=C(Cl)Cl)=C(\Sc1ccccc1)N1CCCCC1	-3.16
CN(C)/C=N/c1[nH]ncc1C#N	9.35

Compound	hERG current change (%, negative = inhibition) at 1uM [%]
CC[C@@H]1C(=O)OC[C@@H]1CC1=CN=C[NH+]1C.O=[N+]([O-])[O-]	19.5
COc1ccc(OCC(=O)Nc2ccc(N3CCN(C(=O)c4ccccc4C)CC3)cc2)cc1	6.68
CCCCCCC(=O)N(O)C1CC(=O)N(c2ccc(F)cc2)C1=O (stereo not drawn)	16.4
CN(C)CCN(C(=O)C1=COCCO1)c1nc2ccc(F)cc2s1.Cl	-57.7
COc1cccc(CN(C)C(=O)CSC(C)C(=O)Nc2cc(C)on2)c1OC (stereo not drawn)	14
CN1CCN(c2ccccc2NC(=O)c2ccc(OCc3ccccc3)cc2)CC1	5.14
CC(C)NC(=O)C1CCN(C2CCN(C(=O)C3=CCCC3)CC2)CC1	1.67
Cc1cccn2cc(-c3ccc(F)cc3)cc12	14.2
COc1ccc(C(=O)NCC(=O)Nc2ccc(-c3ccccc3)cc2)cc1	15.7
CCN(CC(=O)Nc1c(F)cccc1F)C(=O)CN(C)S(=O)(=O)c1ccc(F)cc1	6.9
COc1ccc(-n2nnnc2SCC(=O)NC(=O)Nc2ccc3c(c2)OCCO3)cc1	6.13
CN(C)c1cc(N)c2c(n1)CCC2.O=C(O)c1cncc(O)c1	-2.61
COc1cccc(C(=O)Nc2nnc(SCC(=O)Nc3ccc(NC(C)=O)cc3)s2)c1	-25.3
O=C(N/N=C/C1CC=CCC1)c1ccccc1O (stereo not drawn)	13.3
CCC(Oc1ccccc1)C(=O)Nc1ccsc1C(=O)OC (stereo not drawn)	8.03
Cc1ccc(C(=O)OCC(=O)Nc2cc(C(C)(C)C)nn2-c2ccccc2)c(O)c1	-2.37
CN(Cc1c(C(=O)N/N=C/c2cccc(O)c2)nnn1-c1nonc1N)C1CCCCC1	3.72
Cc1nnc2n1NC(c1ccc(Cl)cc1)C(C(=O)N1CCC(C)CC1)S2 (stereo not drawn)	12.1
Cc1occc1-c1nnc(SCC(=O)NC2CC2)n1C	-1.36
